56 compounds from paper PMC4336329 (PLoS ONE, 2015) can be followed below.

Screen size: about 310,000 compounds; about 2,200 (0.71%) showed an effect of 50% or more. Effects have a minus sign here. This is one part of the list.

This assay deals with human ether-à-go-go-related gene (hERG) potassium channel (human, UniProt Q12809). The assay can be described thus: primary screen, population patch clamp on CHO cells stably expressing hERG.
human ether-à-go-go-related gene (hERG) potassium channel, sequence (Q12809 whole entry, looked up): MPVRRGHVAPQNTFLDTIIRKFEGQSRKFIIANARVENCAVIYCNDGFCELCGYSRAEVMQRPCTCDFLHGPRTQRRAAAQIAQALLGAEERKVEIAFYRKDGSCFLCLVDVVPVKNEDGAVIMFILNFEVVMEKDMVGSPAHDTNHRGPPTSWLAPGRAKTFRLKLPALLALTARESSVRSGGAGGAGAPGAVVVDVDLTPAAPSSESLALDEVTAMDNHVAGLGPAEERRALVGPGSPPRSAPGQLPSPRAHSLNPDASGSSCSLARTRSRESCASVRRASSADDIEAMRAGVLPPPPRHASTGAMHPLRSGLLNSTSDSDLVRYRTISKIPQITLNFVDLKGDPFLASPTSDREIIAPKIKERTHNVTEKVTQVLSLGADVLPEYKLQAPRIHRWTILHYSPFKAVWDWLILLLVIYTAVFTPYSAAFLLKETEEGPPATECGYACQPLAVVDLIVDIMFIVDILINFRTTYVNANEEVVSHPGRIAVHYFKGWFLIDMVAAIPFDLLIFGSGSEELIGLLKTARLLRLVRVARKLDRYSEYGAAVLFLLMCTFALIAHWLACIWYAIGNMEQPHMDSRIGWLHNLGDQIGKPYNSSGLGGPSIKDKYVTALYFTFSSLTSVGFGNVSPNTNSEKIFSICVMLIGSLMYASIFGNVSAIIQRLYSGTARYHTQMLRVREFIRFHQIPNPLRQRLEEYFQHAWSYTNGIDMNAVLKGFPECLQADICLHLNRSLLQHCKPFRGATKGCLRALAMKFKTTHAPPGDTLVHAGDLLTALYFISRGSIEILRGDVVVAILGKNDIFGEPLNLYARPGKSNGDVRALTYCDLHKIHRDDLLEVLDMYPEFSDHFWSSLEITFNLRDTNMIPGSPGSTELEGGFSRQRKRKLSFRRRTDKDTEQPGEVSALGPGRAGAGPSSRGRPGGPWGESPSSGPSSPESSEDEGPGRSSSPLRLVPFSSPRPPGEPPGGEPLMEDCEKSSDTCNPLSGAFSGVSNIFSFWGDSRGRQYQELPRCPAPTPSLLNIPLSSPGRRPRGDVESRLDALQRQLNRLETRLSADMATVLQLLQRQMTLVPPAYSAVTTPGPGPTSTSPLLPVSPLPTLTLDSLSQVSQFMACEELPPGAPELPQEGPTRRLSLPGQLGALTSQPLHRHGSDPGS
With `CCOC(=O)C1=C(C)NC(=O)NC1c1ccc(OC)c(Cl)c1` (centres unmarked), the “hERG current change (%, negative = inhibition) at 1uM” value is reported as -0.266%.

For `CC1SC(=NC(=O)c2ccco2)NC1=O` (centres unmarked), the “hERG current change (%, negative = inhibition) at 1uM” value is 5.47%.

With `CCCN1CCC(NC(=O)Nc2cc(Cl)ccc2OC)CC1`, the “hERG current change (%, negative = inhibition) at 1uM” value amounted to 10.7%.

For `Cc1csc(NC(=O)CSc2nnc3ncccn23)n1`, the “hERG current change (%, negative = inhibition) at 1uM” value is reported as -4.58%.

On to `O=C(NC(=S)N1CCOCC1)C12CCC3CC(CC(C3)C1)C2`, for which the “hERG current change (%, negative = inhibition) at 1uM” value was 12.8%.

For `COc1ccc(CNc2ccc(Cl)cc2)cc1Cn1ccnc1`, the “hERG current change (%, negative = inhibition) at 1uM” value amounted to 10.9%.

As for `CC(C)C(=O)Nc1nc(-c2ccc([N+](=O)[O-])cc2)cs1`, the “hERG current change (%, negative = inhibition) at 1uM” value was 11.4%.

Take `CSCC[C@H](NC(=O)NCc1cccs1)C(=O)O`: the “hERG current change (%, negative = inhibition) at 1uM” value was -3.52%.

Regarding `COc1cccc(C2C(C(=O)OC(C)C)=C(C)Nc3ncnn32)c1` (centres unmarked), the “hERG current change (%, negative = inhibition) at 1uM” value turned out to be 0.149%.

As to `CC(C)(C)c1ccc(NC(=O)Nc2ccc(OCC(=O)N3CCOCC3)cc2)cc1`, the “hERG current change (%, negative = inhibition) at 1uM” value is given as 5.4%.

Turning to `COc1ccc(-n2cnc3cc(C(=O)NCCN4CCOCC4)ccc32)cc1`, the “hERG current change (%, negative = inhibition) at 1uM” value amounted to 11.5%.

Take `Cc1cc(C[n+]2ccsc2N)c2ncccc2c1.[Br-]`: the “hERG current change (%, negative = inhibition) at 1uM” value is -20.1%.

Take `CC1=CCC(C(C)(C)NC(=O)c2ccccc2)C/C1=N\O` (centres unmarked): the “hERG current change (%, negative = inhibition) at 1uM” value is -9.97%.

`O=C(NNC1=NCCC1)c1cccc(S(=O)(=O)N2CCCCC2)c1`: the “hERG current change (%, negative = inhibition) at 1uM” value is on record as 18.2%.

Turning to `Cc1cnc(N2C(=O)c3ccc([N+](=O)[O-])cc3C2=O)s1`, the “hERG current change (%, negative = inhibition) at 1uM” value worked out at 14.1%.

For `Cc1occc1C(=O)Nc1nnc(-c2ccncc2)s1`, the “hERG current change (%, negative = inhibition) at 1uM” value worked out at 6.44%.

Turning to `Cc1nc2ccc(S(=O)(=O)NC(C(=O)Nc3nc4ccc(Cl)cc4s3)C(C)C)cc2s1` (centres unmarked), the “hERG current change (%, negative = inhibition) at 1uM” value is 7.34%.

Turning to `COc1ccc(C2=NC(=O)/C(=C\c3cc(OC)c(OC)c(OC)c3)O2)cc1`, the “hERG current change (%, negative = inhibition) at 1uM” value stood at 12.3%.

For the compound `CCOc1ccccc1-c1nc(C(N)=O)c2[nH]c(=O)n(-c3ccccc3)c2n1`, the “hERG current change (%, negative = inhibition) at 1uM” value is listed as 17.4%.

With `CC1CCCN(C(=O)C2(NC(=O)Nc3cccc(F)c3)CCCCC2)C1` (centres unmarked), the “hERG current change (%, negative = inhibition) at 1uM” value is 9.85%.

Turning to `COc1cccc(NS(=O)(=O)c2ccc3c(c2)CCCN3C(C)=O)c1`, the “hERG current change (%, negative = inhibition) at 1uM” value was found to be 0.314%.

Regarding `CCC(=O)N1CCc2cc(S(=O)(=O)NC(C(=O)NCc3ccc(C)cc3)C(C)C)ccc21` (centres unmarked), the “hERG current change (%, negative = inhibition) at 1uM” value is 1.57%.

Consider `CCOC(=O)N1CCN(C(=O)/C=C/c2ccc(OC)c(OC)c2)CC1`, for which the “hERG current change (%, negative = inhibition) at 1uM” value came out at 10.9%.

Take `CC(/C=N/NC(=O)c1ccncc1)=C\c1ccco1`: the “hERG current change (%, negative = inhibition) at 1uM” value turned out to be 14.7%.

As to `O=C(CCC(=O)N1CCOc2ccc(Cl)cc21)NCCCN1CCOCC1`, the “hERG current change (%, negative = inhibition) at 1uM” value is listed as 12.5%.

As for `Cc1nc2nc(C)c(NS(=O)(=O)c3ccc4c(c3)CCCC4)c(=O)n2[nH]1`, the “hERG current change (%, negative = inhibition) at 1uM” value came to 13.1%.

For `CCCNC(=O)Nc1cc(OC)c(OC)cc1Cc1nccc2cc(OC)c(OC)cc12`, the “hERG current change (%, negative = inhibition) at 1uM” value worked out at 12.8%.

In the case of `Cc1cc(O)c(C(C)C)cc1NC(=O)Nc1cccc2ccccc12`, the “hERG current change (%, negative = inhibition) at 1uM” value came to 13.8%.

Regarding `Cc1cccc(NS(=O)(=O)c2c(C)n[nH]c2C)c1`, the “hERG current change (%, negative = inhibition) at 1uM” value stood at 9.77%.

As for `O=C(C1=C[C@@H](c2ccc(Br)cc2)C[C@@H](OCCCCO)O1)N1CCOCC1`, the “hERG current change (%, negative = inhibition) at 1uM” value worked out at 9.49%.

Turning to `Cc1ccc(C(=O)Nc2cccc([N+](=O)[O-])c2)cc1S(=O)(=O)Nc1ccc(NC(=O)c2ccccc2)cc1`, the “hERG current change (%, negative = inhibition) at 1uM” value is recorded as -0.104%.

For the compound `O=C(Nc1ccccc1Cl)c1cccc(NC(=O)C2C3CC4OC(=O)C2C4C3)c1` (centres unmarked), the “hERG current change (%, negative = inhibition) at 1uM” value stood at 13.2%.

On to `Cc1cccc2cc(CN(Cc3cccs3)S(=O)(=O)c3ccc4c(c3)OCCO4)c(=O)[nH]c12`, for which the “hERG current change (%, negative = inhibition) at 1uM” value came out at 8.3%.

Take `O=C(Nc1cc(SCCO)cc([N+](=O)[O-])c1)c1ccco1`: the “hERG current change (%, negative = inhibition) at 1uM” value came out at 6.6%.

On to `Cc1ccc(C(=O)CSc2ccc(-c3cccnc3)nn2)cc1`, for which the “hERG current change (%, negative = inhibition) at 1uM” value is given as 7.54%.

In the case of `CSc1nc2c(c(C(F)(F)F)n1)CC(C)CC2` (centres unmarked), the “hERG current change (%, negative = inhibition) at 1uM” value stood at 15%.

Take `Cc1cc2c(cc1S(=O)(=O)N(C)c1ccccc1)NC(=O)CO2`: the “hERG current change (%, negative = inhibition) at 1uM” value was 14.2%.

With `COc1ccc(C(=O)N2CCc3cc4c(cc3C2C)OCCCO4)cc1` (centres unmarked), the “hERG current change (%, negative = inhibition) at 1uM” value worked out at 7.69%.

For the compound `CCCCCC/C=C/c1ccc(OC)c([C@H]2[C@H]3C=CC[C@@H](C)[C@@H]3C(=O)N2Cc2ccccc2)c1`, the “hERG current change (%, negative = inhibition) at 1uM” value is listed as 10.9%.

`CC[C@H]1C2C[C@H]3[C@@H]4N(C)c5ccccc5C45C[C@H](C2[C@H]5O)N3[C@@H]1O` (some centres unmarked): the “hERG current change (%, negative = inhibition) at 1uM” value is reported as -13.1%.

Regarding `CCOC(=O)N1CCN(C(=O)CN(c2cccc(C(F)(F)F)c2)S(C)(=O)=O)CC1`, the “hERG current change (%, negative = inhibition) at 1uM” value is on record as -13.1%.

Regarding `CS(=O)(=O)c1ccccc1C(=O)Nc1ccc(-c2nc3ccccc3o2)cc1`, the “hERG current change (%, negative = inhibition) at 1uM” value was found to be 20.8%.

As to `Brc1ccc(OCc2nc3ccccc3[nH]2)cc1`, the “hERG current change (%, negative = inhibition) at 1uM” value is reported as 17.5%.

Consider `Cc1sc2ncnc(N3CCC(C(=O)NNC(=O)COc4cccc(C(F)(F)F)c4)CC3)c2c1C`, for which the “hERG current change (%, negative = inhibition) at 1uM” value was 8.66%.

Take `C#CCn1c(O)c(N=NC(=O)CNC(=O)/C=C/c2ccccc2)c2ccccc21`: the “hERG current change (%, negative = inhibition) at 1uM” value is given as 2.37%.

`COc1ccc(NC(=O)NNS(=O)(=O)c2cc(C)ccc2C)cc1OC`: the “hERG current change (%, negative = inhibition) at 1uM” value worked out at 10.2%.

In the case of `COc1ccccc1C(=O)NCCC(=O)N1CC=C(c2ccccc2)CC1`, the “hERG current change (%, negative = inhibition) at 1uM” value is on record as 3.48%.

Regarding `O=C(O)CSCNC(=O)CC12CC3CC(CC(C3)C1)C2`, the “hERG current change (%, negative = inhibition) at 1uM” value came out at 10.9%.

With `CCN(CC(=O)Nc1ccc(NC(C)=O)cc1)C(=O)c1ccc(=O)[nH]c1`, the “hERG current change (%, negative = inhibition) at 1uM” value came out at 7.6%.

On to `O=C(c1ccc(Cl)cc1)N1CCOc2ccccc21`, for which the “hERG current change (%, negative = inhibition) at 1uM” value was 12.3%.

Take `O=C(c1ccc2c3c(cccc13)CC2)C1CCCN(C(=O)c2ccc(=O)[nH]c2)C1` (centres unmarked): the “hERG current change (%, negative = inhibition) at 1uM” value was determined as 9.4%.

For `NC(=O)C1CCCN(C(=O)c2cccc(S(=O)(=O)N3CCCCCC3)c2)C1` (centres unmarked), the “hERG current change (%, negative = inhibition) at 1uM” value is 15.5%.

In the case of `CCC(C)N=Cc1c(O)n(-c2ccccc2)c(=O)[nH]c1=O` (centres unmarked), the “hERG current change (%, negative = inhibition) at 1uM” value is 8.89%.

As for `CCc1nnc(NC(=O)CSc2nnc(CNC(=O)c3ccccc3F)n2C)s1`, the “hERG current change (%, negative = inhibition) at 1uM” value came to 17%.

Turning to `CSc1ccc(CCNC(=O)c2cc(C)nn2-c2ccccc2)cc1`, the “hERG current change (%, negative = inhibition) at 1uM” value amounted to 3.73%.

As to `COC(=O)c1cc(C)[nH]c2c(C)cc3nc4ccccc4c3c12`, the “hERG current change (%, negative = inhibition) at 1uM” value came to 15.7%.
